Results taken from PubChem BioAssay AID686979 (National Center for Advancing Translational Sciences (NCATS), 2013).
In all, about 420,000 compounds went through this assay and about 50,000 (12%) were called active. The shares of active, inactive and inconclusive entries below differ from those in the screen. The call rests on the fitted dose curve; in most records, active means well fitted inhibition curve with a large enough effect; inconclusive means small, poorly fitted or top-dose-only effect; inactive means flat fitted curve, though single readings scatter. Potencies of inconclusive entries are left out as doubtful fits.
On the % scale 0 is the no-effect control and ±100 the full control effect; potency means the concentration at half of the fitted maximal effect; tags describe the fitted curve by direction and shape.

Test: qHTS for Inhibitors of human tyrosyl-DNA phosphodiesterase 1 (TDP1): qHTS in cells in presence of CPT; further: nearly all actives have a fitted effect of over 55% in size
Conditions: chicken DT40 Tdp1-/-;hTDP1 cells + 20 nM CPT, ATP luminescence, 48 h; activity change, negative = growth inhibition: at 46.2 µM (top of the series) unless noted
Method in brief: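 Chicken DT40 Tdp1-/- cells stably complemented with human TDP1 were seeded at 400 cells/well in medium containing 20 nM camptothecin, exposed to pin-transferred compounds, and grown at 37 °C for at least 48 hr. Viability was read as ATP luminescence.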
In the case of `Cc1ccc(NS(=O)(=O)c2cccc3nsnc23)cc1[N+](=O)[O-]`, the “activity change, negative = growth inhibition” value is reported as inactive: 4.42%.
With `COc1ccc(/C=N/NC(=O)c2ccccc2O)cc1COc1ccccn1` the “activity change, negative = growth inhibition” value was inactive: -2.02%.
In the case of `Cc1nn(CC(=O)N2CCN(c3ccccc3)CC2)c(C)c1[N+](=O)[O-]`, the “activity change, negative = growth inhibition” value is reported as inactive: 0.907%.
For `O=C(CSc1nnnn1C1CCCC1)c1ccc2c(c1)OCCO2`, the Potency was active: 20.6 µM.
With `COc1ccc(CC2(CO)CCN(S(=O)(=O)c3c(C)nn(C)c3Cl)CC2)cc1` the “activity change, negative = growth inhibition” value was inactive: -13.5%.
With `CC(C)(C)[C@@H]1COC(=O)[C@H](Cc2ccc(F)cc2)C/C=C\C[C@H](CC(=O)N(CCO)Cc2ccccc2)C(=O)N1` the Potency was active: 13 µM.
In the case of `CC(=O)c1cccc(NC(=O)C2CCCN(C(=O)c3cnn(-c4ccccc4)c3-n3cccc3)C2)c1` (stereo not given), the Potency is reported as inconclusive [inhibitor, single point].
With `CCn1cc(/C=N/NC(=O)c2ccc(C#N)cc2F)c2ccccc21` the “activity change, negative = growth inhibition” value was inactive: -24.4%.
In the case of `O=C(Nc1ccc(N2CCN(C(=O)c3ccc(Cl)cc3)CC2)cc1)c1ccc2c(c1)OCCO2`, the Potency is reported as active: 13 µM.
For `O=C1C=C(O)CC(c2ccc(Cl)c(Cl)c2)C1` (stereo not given), the “activity change, negative = growth inhibition” value was inactive: -4.07%.
With `CC(C)(C)OC(=O)[C@H]1[C@H](c2ccc([N+](=O)[O-])cc2)C2(C(=O)c3ccccc3C2=O)C2c3ccccc3C=NN21` (stereo not given in full) the Potency was inconclusive [inhibitor, single point].
For `CC(=O)c1cccc(NC(=O)C(=O)c2cn(CC(=O)N3CCCCC3)c3ccccc23)c1`, the Potency was active: 25.9 µM.
For `C[C@@H]1CN([C@H](C)CO)C(=O)c2cc(NC(=O)Nc3ccc(F)cc3)ccc2O[C@@H](C)CCCCO[C@H]1CN(C)S(=O)(=O)c1cccs1`, the Potency was inconclusive [inhibitor, single point].
In the case of `COc1ccc(CCN(C)c2ccc(C(N)=O)cc2[N+](=O)[O-])cc1OC`, the Potency is reported as active: 29.1 µM.
With `Clc1cc2c(cc1/C=N/Nc1nc(N3CCOCC3)nc(N3CCOCC3)n1)OCO2` the Potency was inconclusive [inhibitor, single point].
For `CCOc1ccc(C(=O)Nc2cccc(NC(=O)c3ccc(C(C)(C)C)cc3)c2)cc1Br`, the Potency was inconclusive [inhibitor, single point].
For `O=C(c1ccc2c(c1)N(Cc1ccc(F)cc1)C(=O)c1ccccc1S2(=O)=O)N1CCN(Cc2ccccc2)CC1`, the Potency was active: 11.6 µM.
In the case of `O=C(Cc1ccc(-n2c(=O)[nH]c3ccsc3c2=O)cc1)N1CCN(c2ccc(Cl)cc2)CC1`, the Potency is reported as inconclusive [inhibitor, single point].
In the case of `Cn1ccc2c(-c3ccc(C(F)(F)F)cc3)cc3c(c21)C1CCC3C1` (stereo not given), the Potency is reported as inconclusive [inhibitor, single point].
In the case of `Brc1ccc(OCc2nc(-c3ccccn3)n[nH]2)cc1`, the Potency is reported as inconclusive [inhibitor, single point].
In the case of `COc1ccc(C(=O)N2CC(=O)Nc3ccc(C)cc3C2c2ccccc2)cc1` (stereo not given), the activity change, negative = growth inhibition is reported as inconclusive: -30.2% [inhibitor].
For `COc1ccc(-c2nc(SCC(=O)Nc3ccc4c(c3)OCCO4)c(-c3ccc(F)cc3)[nH]2)cc1OC`, the Potency was inconclusive [inhibitor, single point].
In the case of `COc1ccc(Nc2nc(NCc3ccco3)nc(N/N=C/c3ccccc3)n2)cc1`, the Potency is reported as inconclusive [inhibitor, single point].
With `CN(Cc1ccc(Br)cc1)C(=O)CCN1C(=O)c2cccc([N+](=O)[O-])c2C1=O` the “activity change, negative = growth inhibition” value was inactive: 4.16%.
For `COc1ccc(OCc2cc(C(=O)N3CCCC(O)C3)no2)c2ccccc12` (stereo not given), the “activity change, negative = growth inhibition” value was inactive: -10.3%.
With `COC(=O)C[C@H]1c2ccccc2S(=O)(=O)N1c1cccc(OC)c1` the Potency was inconclusive [inhibitor, single point].
For `CC1CCN(C(=O)c2ccc(-n3cnnn3)cc2)CC1`, the “activity change, negative = growth inhibition” value was inactive: 1.55%.
For `COc1ccc(OC(C)C(=O)N2CCc3ccccc3C2)cc1` (stereo not given), the Potency was inconclusive [inhibitor, single point].
For `CC(C)C(=O)NC(=S)Nc1sc2c(c1C(N)=O)CCCC2`, the Potency was inconclusive [inhibitor, single point].
In the case of `CC1CN(S(=O)(=O)c2cccc(C(=O)NCCC3=CCCCC3)c2)CC(C)O1` (stereo not given), the Potency is reported as active: 11.6 µM.
In the case of `COc1ccc(S(=O)(=O)N(C)c2ccc(C(=O)N3CCCCC3)cc2)cc1OC`, the Potency is reported as active: 7.31 µM.
In the case of `COc1ccccc1NS(=O)(=O)c1cc(NC(=O)c2cccs2)ccc1N1CCOCC1`, the Potency is reported as active: 7.31 µM.
In the case of `Cc1cc(C)n2nc(C(=O)NCC3Cc4cccc(-c5ccc(S(C)(=O)=O)cc5)c4O3)cc2n1` (stereo not given), the Potency is reported as inconclusive [inhibitor, single point].
With `N#CCC(=O)N1CCN(C=O)CC1` the “activity change, negative = growth inhibition” value was inactive: 0.478%.
For `C=CCN(C(=O)c1csnn1)C(C(=O)NCc1ccc(F)cc1)c1sccc1C` (stereo not given), the Potency was inconclusive [inhibitor, single point].
For `Cc1ccc(NC(=O)CCCn2c(=O)c3cccn3c3ccccc32)cc1C`, the Potency was active: 16.4 µM.
With `C/C(=N/NS(=O)(=O)c1ccc(Cl)cc1)c1cccc(NC(=O)c2ccc(Cl)cc2Cl)c1` the Potency was inconclusive [inhibitor, single point].
In the case of `O=C(CSc1nnc(CNC(=O)c2c(F)cccc2F)o1)NCc1ccccc1`, the “activity change, negative = growth inhibition” value is reported as inactive: 6.68%.
In the case of `O=C(CCCN1C(=O)/C(=C/c2ccccc2Cl)SC1=S)NNC(=O)c1cccnc1`, the Potency is reported as inconclusive [inhibitor, single point].
For `Cc1ccccc1NC(=O)c1cccc2nc3ccccc3nc12`, the Potency was inconclusive [inhibitor, single point].
For `COc1cccc(-c2nnc(SCC(=O)N3CCC(C)CC3)o2)c1`, the Potency was inconclusive [inhibitor, partial curve].
In the case of `CC(=O)c1cccc(S(=O)(=O)NCC(c2ccco2)N2CCCCC2)c1` (stereo not given), the Potency is reported as inconclusive [inhibitor, partial curve].
For `COc1ccc(S(=O)(=O)N2CCN(C(=O)C3CCCCC3)CC2)cc1`, the “activity change, negative = growth inhibition” value was inactive: -0.469%.
In the case of `COCCCNC(=O)c1ccc(-n2c(-c3ccccc3)cc3c2CCCC3)cc1`, the Potency is reported as inconclusive [inhibitor, single point].
In the case of `Cc1ccc(S(=O)(=O)N(CC(=O)Nc2cccc(N(C)S(C)(=O)=O)c2)c2ccc(Cl)c(Cl)c2)cc1`, the Potency is reported as active: 20.6 µM.
With `O=C(COC(=O)c1ccccc1Br)NCc1ccccc1` the “activity change, negative = growth inhibition” value was inactive: -2.29%.
In the case of `Cc1cc(C)cc(Cn2cc(CN3CC(N(C)C)CS3(=O)=O)nn2)c1` (stereo not given), the “activity change, negative = growth inhibition” value is reported as inactive: 2.1%.
For `Cc1nnc(SCc2ccc(Cl)cc2)nc1/C=C/N(C)C`, the Potency was inconclusive [inhibitor, single point].
With `CCc1nc2nc(C)c(NS(=O)(=O)c3ccc(F)cc3)c(=O)n2[nH]1` the “activity change, negative = growth inhibition” value was inactive: 8.91%.
With `O=C(NC(=S)N1CCN(c2ccc(F)cc2)CC1)c1cccs1` the Potency was inconclusive [inhibitor, single point].
With `CC(C)NC(=O)c1ccc(-c2ccc(F)c(F)c2)c2ccoc12` the Potency was active: 25.9 µM.
With `Cc1cc(C(C)(C)C)oc1C(=O)N(CC(=O)NC1CCCC1)Cc1ccc(F)cc1` the Potency was active: 20.6 µM.
With `O=C(OCc1ccccc1)c1cn(-c2ccccc2)nc1-c1ccncc1` the “activity change, negative = growth inhibition” value was inactive: -0.935%.
In the case of `COc1ccc(Oc2cccc(Cl)c2CNC(=O)c2ccccc2C(=O)O)cc1`, the activity change, negative = growth inhibition is reported as inconclusive: -34% [inhibitor].
With `Cc1c(C(=O)NCCCN2CCCCC2)oc2ccc3c(c12)C(O)CC1(CCCCC1)O3` (stereo not given) the Potency was inconclusive [inhibitor, single point].
In the case of `O=c1c(-c2ccccc2)nc2cncnc2n1Cc1ccc(F)cc1`, the Potency is reported as inconclusive [inhibitor, single point].
For `CCN(CC)CCn1c(SCC(=O)NCCC2=CCCCC2)nc2c(sc3ccccc32)c1=O`, the Potency was inconclusive [inhibitor, single point].
For `COc1ccc2c(c1)[C@H]1[C@H](CO2)[C@H](c2ccccc2)[C@]2(C)C(=O)Nc3cc(OC)c(OC)cc3C(=O)N12`, the Potency was inconclusive [inhibitor, single point].
With `COc1cc(C)c(CN2CCN(S(=O)(=O)c3ccc(Cl)s3)CC2)cc1OC` the Potency was inconclusive [inhibitor, single point].
In the case of `Cc1ccc(-c2nc(-c3ccccc3)no2)c(Cl)c1`, the Potency is reported as inconclusive [inhibitor, single point].
In the case of `Cc1ccc(C)c(S(=O)(=O)N2CCN(C(=O)CCC(=O)c3cc(C)sc3C)CC2)c1`, the Potency is reported as inconclusive [inhibitor, single point].
In the case of `Cc1ccc(S(=O)(=O)N2CN(CC3CCCO3)c3nc4ccccc4nc32)c(C)c1` (stereo not given), the Potency is reported as inconclusive [inhibitor, single point].
For `Oc1ccc(N=Cc2cc(Br)c(N3CCOCC3)o2)cc1`, the Potency was inconclusive [inhibitor, partial curve, poor fit].
In the case of `NC(=O)c1cc([N+](=O)[O-])ccc1NCc1cnccn1`, the “activity change, negative = growth inhibition” value is reported as inactive: -20.1%.
For `Cc1cc(Br)cn2c(Cc3ccccc3)c(-c3ccccc3)nc12`, the Potency was active: 29.1 µM.
For `CC(C)(C)c1nc2sc3c(c2c(=O)o1)CCCC3`, the Potency was inconclusive [inhibitor, single point].
For `CCC(=O)Oc1ccc2c(c1)OC1(OC(C)=O)OC(C)CC1=C2C` (stereo not given), the “activity change, negative = growth inhibition” value was inactive: -21.4%.
For `O=C(Cn1c(C(F)(F)F)nc2ccccc21)c1ccc(Cl)cc1`, the Potency was inconclusive [inhibitor, partial curve].
In the case of `CCn1cc2c(n1)-c1c(oc(C(=O)Nc3cccc(C)c3C)c1C)CC2`, the Potency is reported as inconclusive [inhibitor, single point].
With `COc1ccc(-c2nc(CS(=O)(=O)CC(=O)Nc3ccc(Cl)cc3)c(C)o2)cc1` the Potency was active: 10.3 µM.
